“And” between values parts separate entries of the source, which are not always exact repeats. Equal entries are not always repeated. Hit rate of the full screen: of about 410,000 compounds, about 5,000 (1.2%) were called active. Inconclusive means that the source gave no clear call. Such entries were picked first, then a sample of the others. The call rests on the fitted dose curve; in most records, active means well fitted inhibition curve with a large enough effect; inconclusive means small, poorly fitted or top-dose-only effect; inactive means no such curve, though single readings can be large or run the other way. Where the call is inconclusive, the potency comes from a doubtful curve fit.
Experiment: qHTS for Inhibitors of TGF-b; further: nearly all actives have a fitted effect of over 65% in size
Conditions: HepG2 CAGA-GFP TGF-b/SMAD3 reporter, GFP fluorescence, 18 h, TGF-beta stimulated, 500 pg/mL final; series mostly up to 46.1 µM
Outline: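 Using HEPG2 CAGA-GFP reporter cells at 1000 cells/well, we pinned test compounds, stimulated with recombinant TGF-beta (500 pg/mL final) and measured total well GFP after 18 h.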
For `C=CCOC(=O)c1[nH]c2c(c1C)C(=O)CC(c1ccco1)C2` (stereo not given), the Potency was inconclusive: 6.31 µM [inhibitor, partial curve]. In the case of `O=C(NCc1ccc(Cl)cc1)c1ccc(CSc2nc3ccncc3[nH]2)cc1`, the Potency is reported as inconclusive: 8.91 µM [inhibitor, partial curve]. In the case of `O=C(Nc1cccnc1)Nc1cccc(F)c1`, the Potency is reported as “inactive”. In the case of `COc1ccccc1OCC(=O)N(Cc1ccco1)Cc1ccccc1F`, the Potency is reported as inconclusive: 1 µM [inhibitor, full curve, poor fit]. With `Cc1cc(N2CCOCC2)nc(N2CCOCC2)n1` the Potency was inconclusive: 2.82 µM [inhibitor, partial curve, poor fit]. In the case of `CCOc1ccc(CC(=O)NC2CC(=O)N(c3cccc(F)c3)C2)cc1` (stereo not given), the Potency is reported as “inactive”. In the case of `CC1CCCCN1S(=O)(=O)c1ccc(N(C(=O)c2cnccn2)C(C(=O)NC2CCCCC2)c2cccs2)cc1` (stereo not given), the Potency is reported as inconclusive: 0.112 µM [inhibitor, full curve, poor fit]. For `O=C(NC1=NCCS1)c1ccc(Cl)s1`, the Potency was inconclusive: 35.5 µM [inhibitor, single point]. For `CC(CNC(=O)c1ccc2c(c1)nc1n2CCCCC1)c1ccccc1` (stereo not given), the Potency was “inactive”. With `CC(=C/c1ccccc1)/C=N/N1CCN(Cc2ccc(C)cc2)CC1` the Potency was inconclusive: 35.5 µM [inhibitor, single point]. In the case of `CN(c1ccccc1)S(=O)(=O)c1cccc(NC(=O)c2ccncc2)c1`, the Potency is reported as inconclusive: 4.47 µM [inhibitor, partial curve]. With `Cn1ccc2c(-c3cncc4ccccc34)cc3c(c21)C1CCC3C1` (stereo not given) the Potency was “inactive”. With `COC(=O)c1cn(C(=O)c2cccc(C)c2)c2ccccc12` the Potency was “inactive”. For `CCc1ccccc1NC(=O)N1CCCc2ccccc21`, the Potency was “inactive”. For `C[C@@H]1O[C@@H](O[C@H]2[C@H](O)[C@@H](O)[C@H](Oc3c(-c4ccc(O)c(O)c4)oc4cc(O)cc(O)c4c3=O)O[C@@H]2CO)[C@H](O)[C@H](O)[C@H]1O`, the Potency was inconclusive: 0.501 µM [inhibitor, full curve, poor fit]. With `Brc1ccc2[nH]c3c(NCc4ccccn4)ncnc3c2c1` the Potency was inconclusive: 25.1 µM [inhibitor, partial curve, poor fit]. In the case of `COc1cc(/C=N/NC(=O)c2cc(C)oc2C)ccc1O`, the Potency is reported as “inactive”. For `Clc1ccsc1-c1csc(-c2cccnc2)n1`, the Potency was “inactive”. For `COc1ccccc1NC(=O)c1cc2ccc3cccnc3c2[nH]1`, the Potency was inconclusive: 17.8 µM [inhibitor, single point]. In the case of `COc1ccc(-c2nnc(SCc3cc(=O)c4cc(C)cc(C)c4[nH]3)n2C)cc1`, the Potency is reported as inconclusive: 11.2 µM [inhibitor, partial curve, poor fit]. For `COc1cccc(CN2C(=O)c3ccccc3Sc3ccc(C(=O)N(C)Cc4ccccc4)cc32)c1`, the Potency was inconclusive: 35.5 µM [inhibitor, single point]. With `Cc1ccc2nc(SC(C)C(=O)Nc3cccc([N+](=O)[O-])c3)[nH]c2c1` (stereo not given) the Potency was inconclusive: 35.5 µM [inhibitor, single point]. For `CCOC(=O)c1nccnc1C(=O)Nc1cccc(C(F)(F)F)c1`, the Potency was inconclusive: 6.31 µM [inhibitor, single point]. With `O=C(Cn1cc(COc2c(F)c(F)c(Br)c(F)c2F)nn1)c1ccc(O)cc1` the Potency was inconclusive: 12.6 µM [inhibitor, partial curve, poor fit]. In the case of `CC(=O)C1=C(c2ccc(C)cc2)N(C(C)=O)n2c(nnc2C2CCCCC2)S1`, the Potency is reported as “inactive”. In the case of `COc1ccc(CNC(=O)Nc2ccc3c(c2)N(C)C(=O)c2ccccc2S3)cc1`, the Potency is reported as “inactive”. For `O=C(Nc1cccc2ccccc12)c1ccc([N+](=O)[O-])o1`, the Potency was inconclusive: 8.91 µM [inhibitor, partial curve, poor fit]. In the case of `S=C(Nc1ccc(Cl)cc1)NC1CC2CCCC(C1)N2C1CC1` (stereo not given), the Potency is reported as inconclusive: 35.5 µM [inhibitor, single point]. In the case of `Cc1ccc(C)c(S(=O)(=O)N2CCCC2CNC(=O)C(=O)NCCc2ccccc2)c1` (stereo not given), the Potency is reported as inconclusive: 0.1 µM [inhibitor, full curve, poor fit]. With `CC1(C(=O)NS(=O)(=O)c2ccc(Br)cc2)CCN1C(=O)C1CCCCC1` (stereo not given) the Potency was “inactive”. With `O=C(c1ccccc1)C(CCC(CN1CCOCC1)C(=O)c1ccccc1)CN1CCOCC1` (stereo not given) the Potency was inconclusive: 35.5 µM [inhibitor, partial curve, poor fit]. For `COc1ccc(CNC(=O)C[C@H]2C[C@H](C(=O)N3CCCCC3)[C@@]3(C)c4[nH]c5cc(-c6ccco6)ccc5c4CCN3C2=O)cc1OC`, the Potency was inconclusive: 22.4 µM [inhibitor, single point]. With `CCN1CCN(CCCNC(=O)c2cc3c(s2)-c2ccccc2OC3)CC1` the Potency was inconclusive: 20 µM [inhibitor, single point]. With `Cc1c(Cl)ccc2c(C(O)CBr)cc(-c3ccccc3)nc12` (stereo not given) the Potency was inconclusive: 15.8 µM [inhibitor, single point]. In the case of `O=S(=O)(Nc1cccnc1)c1ccc(Br)c2ccccc12`, the Potency is reported as inconclusive: 25.1 µM [inhibitor, single point]. For `COc1ccc(C2/C=C\CC(OCc3ccccc3)CC(=O)N2Cc2cccc(F)c2)cc1` (stereo not given), the Potency was inconclusive: 17.8 µM [inhibitor, single point]. For `O=C1CC(=C(c2ccccc2)c2ccccc2)C(=O)N1CCCCN1CCN(c2cccc(Cl)c2)CC1`, the Potency was inconclusive: 1.41 µM [inhibitor, full curve, poor fit]. With `O=C(NNC(=S)NC1CCCCC1)c1ccccc1O` the Potency was inconclusive: 15.8 µM [inhibitor, single point]. In the case of `CNC(=S)NNc1nncc2ccccc12`, the Potency is reported as “inactive”. For `Nc1ccc(S(=O)(=O)Nc2nccc(/C=C/c3cccc(Br)c3)n2)cc1`, the Potency was inconclusive: 10 µM [inhibitor, partial curve]. In the case of `Cc1cc(Cl)c(OCCCN(C)C)c(Br)c1`, the Potency is reported as inconclusive: 3.55 µM [inhibitor, single point]. For `Cc1cc(C)nc(Sc2nc(C)nc3c2oc2ccccc23)n1`, the Potency was inconclusive: 0.708 µM [inhibitor, partial curve, poor fit]. For `COc1ccc(N2CC(C(=O)N3CCN(S(=O)(=O)c4ccc(F)c(F)c4)CC3)CC2=O)c(OC)c1` (stereo not given), the Potency was inconclusive: 35.5 µM [inhibitor, single point]. With `Nc1ccc2oc(-c3cccc4ccccc34)nc2c1` the Potency was inconclusive: 35.5 µM [inhibitor, single point]. For `CC(C)CCNC(=O)c1ccc2c(c1)NC(=O)C(CS(=O)(=O)Cc1ccc(F)cc1)N2` (stereo not given), the Potency was inconclusive: 17.8 µM [inhibitor, single point]. In the case of `CCCCCCCCCC1(CC(=O)OCC)SCCN1C(N)=O` (stereo not given), the Potency is reported as “inactive”. With `CC(C)c1ccc(SCc2noc(C(=O)NCC3CCCO3)c2C(=O)O)cc1` (stereo not given) the Potency was inconclusive: 35.5 µM [inhibitor, single point]. In the case of `O=C(Nc1ccccc1O)c1cc(S(=O)(=O)N2CCOCC2)c(Cl)cc1Cl`, the Potency is reported as inconclusive: 35.5 µM [inhibitor, single point]. In the case of `Fc1ccc(-c2[nH]ncc2CN2CCN(c3ccc(F)cc3)CC2)cc1`, the Potency is reported as “inactive”. For `CN(C)CCNC(=O)c1c(CSc2ccc(Cl)cc2)noc1C(=O)NCc1ccccc1`, the Potency was “inactive”. With `O=C(Nc1cccc(F)c1)N(Cc1ccc(Cl)cc1)CC(O)C(F)(F)F` (stereo not given) the Potency was inconclusive: 11.2 µM [inhibitor, partial curve, poor fit]. In the case of `CC(=O)c1ccc(NC(=O)CN2C(=O)NC(C)(C3CCCCC3)C2=O)cc1` (stereo not given), the Potency is reported as “inactive”. For `Cc1csc(Nc2ccc(Cl)cc2)[n+]1-c1ccc(Cl)cc1`, the Potency was inconclusive: 17.8 µM [inhibitor, single point]. For `Cc1cc(-c2ccc(C)c(S(=O)(=O)NC(c3cccs3)C(C)C)c2)on1` (stereo not given), the Potency was inconclusive: 35.5 µM [inhibitor, partial curve, poor fit]. With `O=S1(=O)CCN(c2ccccc2CC(c2c[nH]c3ccccc23)c2c[nH]c3ccccc23)CC1` the Potency was inconclusive: 8.91 µM [inhibitor, partial curve, poor fit]. In the case of `Cc1ccc(S(=O)(=O)SC/C=C/CSS(=O)(=O)c2ccc(C)cc2)cc1`, the Potency is reported as inconclusive: 20 µM [inhibitor, single point]. In the case of `CCOc1ccc(CN2CCN(Cc3cccn3-c3nccs3)CC2CCO)cc1` (stereo not given), the Potency is reported as inconclusive: 1 µM [inhibitor, partial curve, poor fit]. For `COc1ccc(C(CC(=O)c2ccc(C)cc2)C(C#N)C#N)cc1OC` (stereo not given), the Potency was inconclusive: 20 µM [inhibitor, single point]. In the case of `O=C(NCCc1ccc(Cl)cc1)Nc1ccc(F)cc1`, the Potency is reported as “inactive”. For `Cc1cccc(CNS(=O)(=O)c2ccc(-c3cnc(C4CC4)o3)cc2)c1`, the Potency was inconclusive: 10 µM [inhibitor, partial curve, poor fit] and inconclusive: 12.6 µM [inhibitor, single point]. With `O=C(Nc1cccc(F)c1)C1CCCN1S(=O)(=O)c1cccc2cccnc12` (stereo not given) the Potency was “inactive”. For `COC(=O)/C(C#N)=C\c1c(OC)[nH]c2ccccc12`, the Potency was inconclusive: 35.5 µM [inhibitor, single point]. For `C=CCSc1n[nH]c2nc3c(c(=O)n12)C1(CCCC1)Cc1ccccc1-3`, the Potency was “inactive”. With `CCNS(=O)(=O)c1cccc(C(=O)c2c(C)cc3ccccn23)c1` the Potency was inconclusive: 35.5 µM [inhibitor, single point]. With `Cc1ccc(Cl)cc1N1CCN(C(=O)c2cc(S(=O)(=O)N3CCCC3)cn2C)CC1` the Potency was inconclusive: 10 µM [inhibitor, partial curve].
Potency means the concentration at half of the fitted maximal effect; tags describe the fitted curve by direction and shape.
